Some of the results follow.
Assays:
HSkMC = human skeletal muscle cells; assay: cytotoxicity call (relative viability < 0.9); details: 10 µM
HepG2 = assay: cytotoxicity call (relative viability < 0.9); details: 10 µM
S. aureus RN4220 = assay: growth inhibition call (relative growth <= 0.2); details: 50 µM

**Q.** For `C[C@H]1CN([C@@H](C)CO)C(=O)c2cc(NC(=O)Cc3ccccc3)ccc2O[C@H]1CN(C)S(=O)(=O)c1ccccc1`, which cytotoxicity call (HSkMC) is on record?
**A.** inactive

**Q.** And the cytotoxicity call (HepG2)?
**A.** inactive

**Q.** What about the growth inhibition call (S. aureus RN4220) of the same compound?
**A.** inactive

**Q.** `COC(=O)[C@H](Cc1ccccc1)N1CC(/C=C/C2CC2)=C[C@@H]1[C@@H](O)CCn1cc(-c2ccc(C(=O)NO)cc2)nn1` was tested. Which cytotoxicity call (HSkMC) did it give?
**A.** inactive

**Q.** And the cytotoxicity call (HepG2)?
**A.** inactive

**Q.** What about the growth inhibition call (S. aureus RN4220) of the same compound?
**A.** inactive

**Q.** For `C[C@@H]1CN([C@@H](C)CO)C(=O)c2cc(NC(=O)c3ccncc3)ccc2O[C@H]1CN(C)S(=O)(=O)c1cccs1`, which cytotoxicity call (HSkMC) is on record?
**A.** inactive

**Q.** And the cytotoxicity call (HepG2)?
**A.** inactive

**Q.** What about the growth inhibition call (S. aureus RN4220) of the same compound?
**A.** inactive

**Q.** Which results are given for `COc1ccc(NC(=O)Nc2cccc3c2O[C@H](CN(C)Cc2ccc(-c4ccccc4)cc2)[C@H](C)CN([C@H](C)CO)C3=O)cc1`?
**A.** cytotoxicity call (HSkMC): active; cytotoxicity call (HepG2): active; growth inhibition call (S. aureus RN4220): inactive

**Q.** `C[C@@H]1CN([C@@H](C)CO)C(=O)Cc2cc(NS(C)(=O)=O)ccc2O[C@H]1CN(C)C(=O)Nc1ccccc1` was tested. Which cytotoxicity call (HSkMC) did it give?
**A.** inactive

**Q.** What about the cytotoxicity call (HepG2) of the same compound?
**A.** inactive

**Q.** What about the growth inhibition call (S. aureus RN4220) of the same compound?
**A.** inactive

**Q.** `C[C@@H]1[C@@H](c2ccccc2)OC(=O)[C@@H]2[C@@H]3C=C[C@]4(O3)[C@H](C(=O)N(Cc3ccccc3)C/C=C\CCC(=O)N1C)N([C@@H](C)CO)C(=O)[C@@H]24` was tested. Which cytotoxicity call (HSkMC) did it give?
**A.** inactive

**Q.** And the cytotoxicity call (HepG2)?
**A.** inactive

**Q.** What about the growth inhibition call (S. aureus RN4220) of the same compound?
**A.** inactive

**Q.** Which cytotoxicity call (HSkMC) does the source give for `C[C@@H]1CCCCO[C@@H](CN(C)C(=O)c2ccccc2)[C@H](C)CN([C@@H](C)CO)C(=O)c2cc(NC(=O)Nc3ccc(C(F)(F)F)cc3)ccc2O1` here?
**A.** inactive

**Q.** What about the cytotoxicity call (HepG2) of the same compound?
**A.** inactive

**Q.** And the growth inhibition call (S. aureus RN4220)?
**A.** inactive

**Q.** For `O=C(C[C@@H]1CC[C@@H]2[C@H](COC[C@@H](O)CN2S(=O)(=O)c2cccc(Cl)c2)O1)NCCCN1CCOCC1`, which cytotoxicity call (HSkMC) is on record?
**A.** inactive

**Q.** And the cytotoxicity call (HepG2)?
**A.** inactive

**Q.** What about the growth inhibition call (S. aureus RN4220) of the same compound?
**A.** inactive

**Q.** `C[C@@H]1CN([C@@H](C)CO)C(=O)c2c(c3ccccc3n2C)-c2ccccc2CO[C@@H]1CN(C)Cc1cccc(O)c1` was tested. Which cytotoxicity call (HSkMC) did it give?
**A.** inactive

**Q.** And the cytotoxicity call (HepG2)?
**A.** inactive

**Q.** And the growth inhibition call (S. aureus RN4220)?
**A.** inactive

**Q.** How did the cytotoxicity call (HSkMC) turn out when `Cc1ccc(C(=N)NO)n1C` was run?
**A.** inactive

**Q.** What about the cytotoxicity call (HepG2) of the same compound?
**A.** inactive

**Q.** What about the growth inhibition call (S. aureus RN4220) of the same compound?
**A.** inactive

**Q.** How did the cytotoxicity call (HSkMC) turn out when `C[C@H](O)C#Cc1cnc2c(c1)C(=O)N([C@@H](C)CO)C[C@H](C)[C@@H](CN(C)C(=O)CN1CCOCC1)O2` was run?
**A.** inactive

**Q.** And the cytotoxicity call (HepG2)?
**A.** inactive

**Q.** What about the growth inhibition call (S. aureus RN4220) of the same compound?
**A.** inactive
